# In PubChem BioAssay AID652104 (National Center for Advancing Translational Sciences (NCATS), 2013):
# Out of some 410,000 compounds screened, about 7,200 (1.8%) were called active. The inconclusive results got no clear call from the source; some entries with a clear call stand among them for comparison. Calls follow the shape of the dose curve; as a rule, active = well fitted activation curve with a large enough effect; inconclusive = small, poorly fitted or top-dose-only effect, or another doubt; inactive = no such curve, though single readings can be large or run the other way. Potencies of inconclusive entries are left out as doubtful fits.
# Test: qHTS of TDP-43 Inhibitors; also: nearly all actives have a fitted effect of over 50% in size; as to growth rescue (activation): % of control where 0% means no effect
# Settings: TDP-43 expressing yeast growth rescue, BacTiter-Glo, 24 h; growth rescue (activation): at 46.1 µM (top of the series) unless noted
# In short: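 Yeast cells expressing TDP-43 under galactose induction are exposed to compounds for 24 hr at 30 deg C. BacTiter-Glo luminescence measures growth, so protective compounds score as activators.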
# Potency is read from the fitted curve at half-maximal effect; tags tell the direction and shape of the fitted curve.
Compound,Potency,growth rescue (activation)
Clc1ccccc1-c1cc2nc(NCc3ccco3)ccn2n1,"inconclusive [activator, partial curve, poor fit]",–
Cc1ccc(S(=O)(=O)NCC(=O)OCC(=O)NC2CCCCC2)cc1,"inconclusive [activator, partial curve]",–
CC(=O)Nc1ccc(C2NC(=O)c3ccccc3O2)cc1 (centres undefined),"inconclusive [activator, single point]",–
Cc1cc(N2CCOCC2)nc(SCc2ccc(Cl)cc2Cl)n1,active: 35.5 µM,–
Cc1cccc(NC(=O)CCCCCN2C(=O)[C@@H]3Cc4ccccc4CN3C2=O)c1,–,inactive: 26.5%
O=C(/C=C/c1ccccc1[N+](=O)[O-])c1ccc(F)cc1,"inconclusive [activator, partial curve]",–
COc1ccc(N(Cc2cccs2)C(=O)COc2ccc([N+](=O)[O-])cc2)cc1,–,inactive: 16.8%
CCN(Cc1ccccc1)C(=O)c1cc2ccc3cccnc3c2[nH]1,"inconclusive [activator, single point]",–
CCOc1ccccc1NC(=O)c1cc2ccc3cccnc3c2[nH]1,–,inactive: 17.1%
Nc1[nH]c(=O)ncc1F,–,inconclusive: -52% [activator]
CCN(CC)C(=S)SCC(=O)c1ccccc1,"inconclusive [activator, single point]",–
O=S(=O)(/C=C/c1ccccc1)Nc1ccc(F)cc1,"inconclusive [activator, partial curve, poor fit]",–
Cc1cccc(-c2nnc(SCC(=O)NC3CCCCC3)o2)c1,"inconclusive [activator, partial curve]",–
Cc1ccccc1-n1nnnc1Sc1nnnn1-c1ccccc1,"inconclusive [activator, single point]",–
COCCCn1c(SCc2ccc(OC)cc2)nc2cc(OC)c(OC)cc2c1=N,"inconclusive [activator, partial curve]",–
COc1ccc(NC(=O)CSc2nc3scc(C)c3c(=O)[nH]2)cc1,–,inactive: 4.3%
O=C(Nc1nccs1)C1CCN(S(=O)(=O)c2c(Cl)cccc2Cl)CC1,active: 14.1 µM,–
CCC(NC(=O)C1(C)CC1(Br)Br)c1ccc(C)cc1 (centres undefined),"inconclusive [activator, partial curve]",–
Nc1c(-c2ccccc2)cnc2ncnn12,"inconclusive [activator, single point]",–
CCC(CO)Nc1ccn2nc(-c3cccs3)cc2n1 (centres undefined),–,inactive: 14.9%
Cc1nc(N)ncc1Sc1ccccc1,"inconclusive [activator, partial curve]",–
O=C(Nc1ccc(F)c(Cl)c1)C1Cc2ccccc2CN1S(=O)(=O)c1ccc(F)cc1 (centres undefined),"inconclusive [activator, full curve]",–
CCCC(=O)Nc1cccc(Oc2nc(C)cc(C)c2C#N)c1,"inconclusive [activator, single point]",–
CC1CCCN(Cc2cnc(Cl)s2)C1 (centres undefined),–,inactive: 5.41%
COc1ccc2c(c1)CCc1sc(NC(=O)c3ccco3)nc1-2,active: 20 µM,–

Compound,Potency,growth rescue (activation)
CCOC(=O)c1sc2ncnc(NCc3ccco3)c2c1C,active: 20 µM,–
Cc1ccc(-c2ccc(=O)n(CC(=O)Nc3ccc(C(C)C)cc3)n2)cc1,"inconclusive [activator, partial curve]",–
CCOC(=O)c1ccc(NC(=O)CSc2nc(C)c(Cc3ccccc3)c(=O)[nH]2)cc1,"inconclusive [activator, full curve]",–
CC1(C)CC(=O)c2c(-c3cccs3)n[nH]c2C1,"inconclusive [activator, single point]",–
Oc1ccc(-c2nc3ccccc3s2)cc1,active: 35.5 µM,–
COCC(C)NC(=S)N1CCN(c2ccccc2Cl)CC1 (centres undefined),"inconclusive [activator, partial curve]",–
Cc1[nH]c2ccc(OC(F)(F)F)cc2c1CCN1C(=O)c2ccc(C(=O)O)cc2C1=O,–,inconclusive: 39% [activator]
CCOC(=O)c1cnc(Nc2nc3ccccc3o2)nc1C,–,inactive: -11.3%
Cc1ccc(-n2c(C)cc(C(=O)NS(=O)(=O)c3ccc(C)cc3)c2C)cc1,"inconclusive [activator, single point]",–
Fc1cccc(Cl)c1Cn1nnc(-c2ccc3c(c2)OCO3)n1,"inconclusive [activator, single point]",–
C/C(N)=C(/C#N)C(=O)COC(=O)C1CCC(C(C)(C)C)CC1 (centres undefined),"inconclusive [activator, single point]",–
COc1cccc(OC)c1-c1nn2c(-c3ccccc3Cl)nnc2s1,active: 15.8 µM,–
Cc1ccc(C2=NN(CC(=O)NC(C)c3ccccc3)C(=O)CC2)cc1 (centres undefined),–,inactive: 45.7%
O=C(/C=C/c1c(F)cccc1Cl)c1ccc(O)cc1,active: 7.94 µM,–
O=C(COC(=O)[C@@H]1CCCN1C(=O)c1cccs1)Nc1ccc(Br)cc1,"inconclusive [activator, single point]",–
Cc1cc(Nc2ccc(C)c(C)c2)n2nc(C)nc2n1,–,inactive: 15.7%
COc1cc(/C=N/NC(N)=S)ccc1OC(=O)c1ccc(C)cc1,"inconclusive [activator, partial curve]",–
CCOC(=O)Cn1c(=NC(=O)CSC(C)=O)sc2ccccc21,"inconclusive [activator, partial curve]",–
O=C(Nc1cccc(C(F)(F)F)c1)c1cc2nc(-c3ccccc3)cc(C(F)(F)F)n2n1,–,inactive: 4.4%
CSc1nncc(/C(C)=N/O)n1,–,inactive: 13.5%
O=C(Nc1nc2c(s1)COc1ccccc1-2)c1cccs1,"inconclusive [activator, partial curve]",–
Cc1ccc(SCc2nc(N)nc(Nc3ccccc3C)n2)c(C)c1,"inconclusive [activator, single point]",–
CC(=O)c1cc(-c2ccc(F)cc2)n(CC(=O)NC2CCCCCC2)c1C,–,inactive: 10%
O=C(Nc1nc(-c2ccc(Cl)s2)cs1)c1cccs1,"inconclusive [activator, single point]",–
CC(Sc1ncnc2sc(-c3ccccc3)cc12)C(=O)NCC1CCCO1 (centres undefined),"inconclusive [activator, partial curve]",–

Compound,Potency,growth rescue (activation)
CC1(c2nnc(-c3ccccc3)o2)CC(c2ccc(F)cc2)=NO1 (centres undefined),"inconclusive [activator, single point]",–
O=C(Cc1cccc(C(F)(F)F)c1)NCc1ccc(Cl)cc1,"inconclusive [activator, partial curve]",–
COc1cc(OC)cc(-c2cc3cc4c(cc3cn2)OCO4)c1,"inconclusive [activator, full curve]",–
Cn1ncc2c(NCCc3ccccc3)nc(Cl)nc21,"inconclusive [activator, single point]",–
Clc1ccccc1CSc1nncn2c1cc1occc12,"inconclusive [activator, single point]",–
CC(=O)N1c2ccccc2CC1C(=O)N1CCN(c2cccc(C)c2C)CC1 (centres undefined),"inconclusive [activator, partial curve]",–
Cc1ccc2onc(CC(=O)N3CCN(c4ccccc4F)CC3)c2c1,"inconclusive [activator, partial curve]",–
CCCn1c(Oc2ccccc2)nc2c1c(=O)n(C)c(=O)n2C,"inconclusive [activator, single point]",–
CC1CC1c1ccc(/C=C(\C#N)C(=O)Nc2ccccc2Cl)o1 (centres undefined),active: 11.2 µM,–
Clc1ccc(N2CCN(Cc3nnc(-c4ccc5c(c4)OCO5)o3)CC2)cc1,–,inactive: 9.92%
N#Cc1ccccc1CSc1nc2ccsc2c(=O)n1Cc1ccccn1,"inconclusive [activator, single point]",–
Cc1ccc(N(CC(=O)NCCSc2nc3ccccc3s2)S(=O)(=O)c2ccccc2)c(C)c1,"inconclusive [activator, partial curve]",–
CCC(=O)Nc1nc(=S)ss1,"inconclusive [activator, single point]",–
COc1ccc(-c2nc(Cn3c(SCc4cccc(F)c4)nc4cccnc43)c(C)o2)cc1,active: 20 µM,–
Cn1cc(S(=O)(=O)N2CCCCCC2)cc1C(=O)Nc1ccccc1F,"inconclusive [activator, partial curve]",–
Clc1ccc(CSc2nnc(-c3ccncc3)o2)cc1,active: 6.31 µM,–
CCc1cc2c(N3CCN(c4nnc(CC)s4)CC3)ncnc2s1,active: 17.8 µM,–
Cc1cc(C)n(-c2ccc(C(=O)OCn3nnc4ccccc4c3=O)cc2)n1,"inconclusive [activator, partial curve]",–
CO/N=C\CC(=O)Nc1ccc(Cl)cc1Cl,"inconclusive [activator, single point]",–
O=C(CCCOc1ccccc1)Nc1nccs1,"inconclusive [activator, full curve, poor fit]",–
Fc1ccc(NC(=S)SCc2ccc3c(c2)OCO3)cc1F,"inconclusive [activator, partial curve]",–
COc1ccc(NC(=O)/C(Cl)=C(/Cl)S(=O)Cc2ccccc2Cl)cn1 (centres undefined),–,inconclusive: -94.5% [activator]
Cc1nn(CC(=O)c2cccc(Cl)c2)c(C)c1[N+](=O)[O-],"inconclusive [activator, single point]",–
Cc1c(Cl)cccc1NC(=S)NN,"inconclusive [activator, partial curve]",–
